# “And” between values parts separate entries of the source, which are not always exact repeats. Identical values can stand only once. This is one part of the list. These are further read-outs of the screen, such as a control signal, another cell line or another target. No call is given for them.
# What was measured:
# Experiment in all cases: Primary Screen for Target Class Profiling of Small Molecule Inhibitors of Methyltransferases
# [1] = biological target: Glycine N-methyltransferase (Homo sapiens) (UniProt Q14749); details: purified enzyme, MTase-Glo SAH luminescence; measured here: GNMT inhibition; at 40 µM; stronger effect = lower value
# Procedure, shortened: (§1)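 Each enzyme was reacted with SAM and its substrate, with compounds tested once at 40 uM; SAH formed was read by MTase-Glo luminescence.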
# [2] = biological target: Guanidinoacetate N-methyltransferase (Homo sapiens) (UniProt Q14353); details: purified enzyme, MTase-Glo SAH luminescence; measured here: GAMT inhibition; at 40 µM; stronger effect = lower value
# Procedure, shortened: as §1
# [3] = biological target: Histamine N-methyltransferase (Homo sapiens) (UniProt P50135); details: purified enzyme, MTase-Glo SAH luminescence; measured here: HNMT inhibition; at 40 µM; stronger effect = lower value
# Procedure, shortened: as §1
# [4] = biological target: Nicotinamide N-methyltransferase (Homo sapiens) (UniProt P40261); details: purified enzyme, MTase-Glo SAH luminescence; measured here: NNMT inhibition; at 40 µM; stronger effect = lower value
# Procedure, shortened: as §1
# [5] = biological target: Phenylethanolamine N-methyltransferase (Homo sapiens) (UniProt P11086); details: purified enzyme, MTase-Glo SAH luminescence; measured here: PNMT inhibition; at 40 µM; stronger effect = lower value
# Procedure, shortened: as §1
# % is scaled to controls: 0 for no effect and ±100 for the full control effect.
SMILES,"activity change, negative = inhibition [1] [%]","activity change, negative = inhibition [2]","activity change, negative = inhibition [3] [%]","activity change, negative = inhibition [4]","activity change, negative = inhibition [5]"
COc1ccccc1NC(=O)CSc1nnc2n(CCC(C)C)c(=O)c3ccccc3n12,-3.62,0%,4.77,-8.88%,1.1%
CCCOc1ccc(CN2C(=O)c3cc4sccc4n3CC2(C)C(=O)NC2CCCCCC2)cc1 (stereo not drawn),-10.1,2.62%,-4.06,-6.56%,-4.75%
CC(C)CCNC(=O)Cn1c(=O)oc2cc(S(=O)(=O)N3CC(C)CC(C)C3)ccc21 (stereo not drawn),-11.1,-1.27%,-3.67,-7.55%,-15.9%
CCCC1CCC(c2ccc(C(=O)COC(=O)C(Cc3c[nH]c4ccccc34)NC(=O)c3ccc(C(C)(C)C)cc3)cc2)CC1 (stereo not drawn),-4.83,0.921%,-13.5,-18%,-8.73%
CC(C)OCCCNC(=O)C1c2c(n(C)c3ccccc23)SCC(=O)N1c1ccc(Cl)cc1 (stereo not drawn),-0.679,-2.6%,3.39,-11%,-3.48%
COc1cccc(CNC(=O)CSc2nnc3n(CCc4ccccc4)c(=O)c4ccccc4n23)c1,-2.39,1.55%,5.74,-9.22%,-1.62%
O=C1NC(=O)C(c2cn3c4c(cccc24)CCC3)C1c1c[nH]c2ccccc12 (stereo not drawn),-6.58,0.634%,7.25,-19.4%,-1.27%
CC(C)N(CCCCOCC(=O)NS(C)(=O)=O)c1cnc(-c2ccccc2)c(-c2ccccc2)n1,-25,0.011%,-6.76,-26.1%,-6.17%
CC1(C(=O)NC2CCCCCC2)Cn2c(nc3ccccc32)C(=O)N1Cc1cccc(Cl)c1 (stereo not drawn),-6.03,1.68%,-3.75,-0.59%,-1.85%
COc1cccc(CNC(=O)c2ncn3c2C(=O)N(C2CC2)C(C)(C(=O)NCc2cccc(C)c2)C3)c1 (stereo not drawn),1.87,1.78%,13.4,7.91%,9.59%
COc1ccc(S(=O)(=O)N2C[C@@H](F)C[C@H]2C(=O)N2CCOCC2)cc1,-7.03,-7.89%,-5.32,-14.7%,-7.94%
COc1ccc(C2COc3cc(O)ccc3C2)c(O)c1 (stereo not drawn),-2.5,6.15%,7.13,-15.2%,6.7%
COc1ccc(OC)c(S(=O)(=O)N2CCC3(CCC3N3CCOCC3)CC2)c1 (stereo not drawn),0.022,0%,4.06,0.207%,4.51%
Cc1ccc(N2C(=O)CSc3c(c4ccccc4n3C)C2C(=O)NCCCOC(C)C)cc1C (stereo not drawn),-8.87,0%,6.29,2.84%,4.67%
c1ccc(-c2oc3ncnc(NC[C@@H]4CCCO4)c3c2-c2ccccc2)cc1,-58.4,-42.9%,-57.3,-58.8%,-60%
COCC1CN(C(C)=O)CC12CCN(S(=O)(=O)c1ccc(OC)cc1)CC2 (stereo not drawn),-1.51,-1.73%,0.207,-7.17%,-2.67%
CCc1cccc(CC)c1-n1c(C=C(C)C)c(C(=O)N2CCNCC2)cc(-c2nc(-c3ccc(C(F)(F)F)cc3)cs2)c1=O,-3.45,-4.96%,2.88,-13.8%,0.8%
CCCn1c(=O)c2ccc(C(=O)NC(C)C)cc2n2c(=O)n(CC(=O)Nc3ccccc3C)nc12,3.23,0.986%,-1.92,-3.32%,-5.92%
CCCN1C(=O)c2c(C(=O)NCc3ccc(OC(C)C)cc3)ncn2CC1(C)C(=O)NCCC(C)C (stereo not drawn),-1.08,0%,4.34,2.16%,6.89%
CC(=O)NC1CCN(C(=O)Cc2c(C)[nH]c3c(C)ccc(C)c23)C1 (stereo not drawn),-10.4,-1.17%,0.814,-4.36%,-5.64%

SMILES,"activity change, negative = inhibition [1] [%]","activity change, negative = inhibition [2]","activity change, negative = inhibition [3] [%]","activity change, negative = inhibition [4]","activity change, negative = inhibition [5]"
CC(=O)O[C@@H]1c2c3c(cc(O)c2C(=O)O[C@@H]1C)O[C@@]1(C)[C@@H](O)C[C@H]2C(C)(C)C(=O)C=C[C@]2(C)[C@@H]1C3,-4.83,-11.7%,0.244,-23.6%,-6.58%
O=C(NC1CCCCC1)c1cc(-c2ccc(F)cc2)c2nncn2n1,-6.78,-13%,-5.06,-11%,-10.8%
O=C(CC1=CCCCC1)NC1CCc2n[nH]c(=O)n2CC1 (stereo not drawn),-5.67,-8.32%,-5.07,-7.58%,-5.59%
O=C(O)c1cc2cc(Cc3cccnc3)ccc2o1,-7.05,10.9%,3.19,-4.51%,7.99%
COc1ccc2nc(C[C@@H]3C[C@@H](C(C)C)[C@H](CNC(=O)NC4CCCCC4)C=C3C)[nH]c2c1,-5.92,-5.15%,-5.56,-12.5%,1.1%
CCOC(=O)c1cnc2c(cnn2CC)c1NN=C(C)C,-24.8,11.2%,0.813,-12.1%,2.88%
Cc1ccc(Cn2nc3n(Cc4ccccc4)c(=O)c4ccc(C(=O)NC5CCCC5)cc4n3c2=O)cc1,-1.76,-2.97%,4.88,-1.62%,1.06%
CN1CC2(CCN(Cc3ccc(-c4ccc(Cl)cc4)o3)C2)OC1=O (stereo not drawn),-19.3,-1.69%,-1.89,-6.91%,-11.3%
CC(=O)N1CCC(N2C[C@@H]3OCC(=O)N(Cc4ccccn4)[C@@H]3C2)CC1,-4.52,-8.84%,-4.13,-14.8%,6.52%
COc1cccc(CCc2ccccc2C(=O)N2CC[C@H](CO)[C@@H](O)C2)c1,-4.49,-5.4%,-1.27,-9.95%,-8.36%
O=C(c1cc(Cc2n[nH]c(=O)c3ccccc23)ccc1F)N1CCCNCC1,0.82,3.48%,0.174,-18.7%,-4.41%
Cc1cc2c(cc3n2CC(C)(C(=O)NC2CCCCCC2)N(CCCOC(C)C)C3=O)o1 (stereo not drawn),2.62,0%,7.63,-2.54%,4.26%
Cc1ccc(S(=O)(=O)c2nnn3c2nc(NCc2ccc4c(c2)OCO4)c2ccccc23)cc1C,2.08,0%,7.47,13.3%,0.73%
CCOC(=O)[C@H](CCc1ccccc1)N[C@@H](C)C(=O)N1C(=O)N(C)C[C@H]1C(=O)O,5.96,2.45% and 1.24%,11.7,-4.97% and -12.7%,5.55% and 3.24%
COc1ccc(CCNc2nc3c(S(=O)(=O)c4ccccc4)nnn3c3ccc(Cl)cc23)cc1OC,-25.6,0%,8.7,1.01%,0.186%
COc1ccc(Cn2c3c(c(=O)n2Cc2ccccc2)CCN(C(=O)CCc2cccnc2)C3)cc1,-3.65,0.932%,1.38,-4.84%,2.25%
CC1(C(=O)NC2CCCCCC2)Cn2c(c(-n3cccc3)c3ccccc32)C(=O)N1Cc1ccccn1 (stereo not drawn),2.02,0%,7.12,-29.5%,5.38%
CC(C)c1nc(N(C)S(C)(=O)=O)nc(-c2ccc(F)cc2)c1/C=C/C(O)CC(O)CC(=O)O (stereo not drawn),–,-1.21%,–,-14.1%,6.32%
CCOc1cc(C)c(CN2CCCC(O)(CN(C)C)C2)cc1C(C)C (stereo not drawn),-1.93,-0.737%,-4.26,-11.5%,-2.79%
Cn1cccc1CN[C@H]1[C@H](O)[C@@H](N2CCCC2)[C@@H]2OC[C@H]1O2,-4.79,-1.81%,1.27,-2.51%,-5.2%

SMILES,"activity change, negative = inhibition [1] [%]","activity change, negative = inhibition [2]","activity change, negative = inhibition [3] [%]","activity change, negative = inhibition [4]","activity change, negative = inhibition [5]"
CCC(C)NC(=O)CSc1nnc2n(Cc3ccc(C)cc3)c(=O)c3ccccc3n12 (stereo not drawn),-0.873,0%,7.26,-4.92%,0.567%
CC(C)(C)C1CN(Cc2cccs2)C(=O)c2cccnc2O1 (stereo not drawn),-3.54,5.27%,2.88,-6.25%,13.4%
C=C1C(=O)O[C@@H]2C[C@H](C)[C@@H]3CC(=O)[C@H](O)[C@@]3(C)C[C@H]12,2.17,-3.67%,7.83,-10.9%,-6.6%
CC1(C(=O)NCc2ccc(Cl)cc2)Cn2c(ccc2-c2ccco2)C(=O)N1Cc1ccccc1 (stereo not drawn),-4.45,2.34%,0.823,-10.2%,-3.7%
S=c1[nH]c(-c2ccccc2)cn1-c1ccccc1,-39,6.87%,-0.944,-6.68%,6.04%
Cc1cccc(NS(=O)(=O)c2ccc3[nH]c(=O)[nH]c3c2)c1C,-8.66,5.57%,0.588,3.65%,-12%
O=C(O)c1ccc(-c2nnc3ccc(NC(=O)C4CCC4)cn23)cc1,-14.2,-0.962%,-3.28,-7.42%,-8.16%
CCCN1C(=O)c2cc(-c3ccc(OC)cc3)nn2CC1(C)C(=O)NC1CCCCC1 (stereo not drawn),2.09,-2.09%,2.35,-1.34%,-3.28%
COc1ccc(C(=O)N[C@H]2COC[C@H]2Cc2cc(C)no2)c(OC)n1,-6.04,-4.54%,-0.891,-10.3%,2.2%
Cc1ccc(CN2C(=O)c3ccc(-c4ccco4)n3CC2(C)C(=O)NC2CCCC2)cc1 (stereo not drawn),-8.29,3.63%,3.14,-8.02%,-2.29%
CS(=O)(=O)c1ccc(-c2nnc(/C=C/c3nnc(-c4ccc(C#N)cc4)o3)n2-c2ccccc2Cl)nc1,-5.84,-2.78%,6.92,-24.2%,-4.72%
COc1ccc(-c2nnc3n(Cc4ccc(C)cc4)c(=O)c4ccccc4n23)c(OC)c1,-5.95,1.43%,2.06,-8.39%,-1.58%
O=C(NCCc1ccccc1)c1ccc2c(=O)nc3c(-c4ccc(F)cc4)n[nH]n3c2c1,-3.69,0.658%,-4.83,-2.78%,-6.52%
CC(=O)Nc1nc(C)c(-c2nc(N3CCCC(O)C3)no2)s1 (stereo not drawn),-34.3,-6.97%,-33.3,-17.7%,-19.1%
NS(=O)(=O)c1ccc(CCNc2nc3c(-c4cccc(Br)c4)nnn3c3ccccc23)cc1,-8.1,0%,5.78,-11.7%,-12%
O=C(O)[C@H](CC(=O)N1C[C@H]2CCCC[C@H]2C1)Cc1ccccc1,-3.05,2.39%,-2.96,-14.5%,-6.18%
CC1CCN(S(=O)(=O)c2ccc3c(ccn3CC(=O)NCc3ccc(Cl)cc3)c2)CC1,-1.14,2.39%,-1.26,2.01%,-0.451%
COc1ccc(OC)c(S(=O)(=O)N2CCC3(CC2)C(OC)C(=O)N3CC2CC2)c1 (stereo not drawn),1.16,2.88%,11.6,6.93%,7.38%
COc1ccc(Cc2nc3nccc(-c4cc5ccccc5o4)n3n2)cc1,-6.88,2.16%,0.081,-2.29%,12.5%
